Counter-ions that a name gives are not always drawn. Like-named read-outs stand apart in the source and are kept apart here. A value given as a limit tells only on which side of the number the result lay.

The values below come from patent US10358436B2, “Kinase inhibitors and method of treating cancer” (University Health Network, priority 2010, dated 2019).

The subject of assay [1] is MDA-MB-231 breast cancer cell line. The assay is described as follows: cells. To be noted: Homo sapiens, MDA-MB-231, 120 h, read-out: GI50 Range, MDA-MB-231.
In assay [2] the test system is OVCAR-3 ovarian cancer cell line. The assay is described as follows: cells. The conditions noted are these: Homo sapiens, OVCAR-3, 120 h, read-out: GI50 Range, OVCAR-3.
The subject of the next assay is 518A2 melanoma cell line. The assay is described as follows: cells. The conditions noted are these: Homo sapiens, 518A2, 120 h, read-out: GI50 Range, 518A2.
Assay [3] relates to 184A1 immortalized breast cell line. The assay is described as follows: cells. To be noted: 184A1, 120 h, read-out: GI50 Range, 184A1.
The test system of assay [4] is Hs683 brain cancer cell line. Kind of assay: cells. The conditions noted are these: Homo sapiens, Hs 683, 120 h, read-out: GI50 Range, Hs683.
For assay [5], the system named is SK-OV-3 ovarian cancer cell line. Kind of assay: cells. To be noted: Homo sapiens, SK-OV-3, 120 h, read-out: GI50 Range, SK-OV-3.
Assay [6] has as its system SW 626 ovarian cancer cell line. Kind of assay: cells. The conditions noted are these: Homo sapiens, SW626, 120 h, read-out: GI50 Range, SW 626.
Assay [7] concerns human mammary epithelial primary cells (HMEC). The assay is described as follows: cells. The conditions noted are these: 120 h, read-out: Cell Line GI50 Range HMEC.
Assay [8] relates to SK-N-SH brain cancer cell line. Kind of assay: cells. To be noted: Homo sapiens, 120 h, read-out: GI50 Range, SK-N-SH.
The subject of assay [9] is T47 D breast cancer cell line. The assay is described as follows: cells. The conditions noted are these: Homo sapiens, T47D, 120 h, read-out: GI50 Range, T47 D.
For assay [10], the system named is SW620 colon cancer cell line. The assay is described as follows: cells. The conditions noted are these: Homo sapiens, SW-620, 120 h, read-out: Cell Line GI50 Range SW-620.
Assay [11] concerns HCT-15 colon cancer cell line. The assay is described as follows: cells. To be noted: Homo sapiens, HCT-15, 120 h, read-out: GI50 Range, HCT-15.
Assay [12] deals with BT474 breast cancer cell line. Kind of assay: cells. To be noted: Homo sapiens, BT-474, 120 h, read-out: GI50 Range, BT474.
Assay [13] deals with Colo 205 colon cancer cell line. The assay is described as follows: cells. To be noted: Homo sapiens, COLO 205, 120 h, read-out: GI50 Range, Colo 205.
The test system of assay [14] is MDA-MB-468 basal breast cancer cell line. The assay is described as follows: cells. The conditions noted are these: Homo sapiens, MDA-MB-468, 120 h.
The test system of assay [15] is A172 brain cancer cell line. The assay is described as follows: cells. To be noted: Homo sapiens, A 172, 120 h, read-out: GI50 Range, A172.
For assay [16], the system named is HS578T breast cancer cell line. The assay is described as follows: cells. The conditions noted are these: Homo sapiens, Hs-578T, 120 h, read-out: GI50 Range, HS578T.
For assay [17], the system named is HCT116+/− colon cancer cell line. Kind of assay: cells. The conditions noted are these: Homo sapiens, HCT-116, 120 h, read-out: GI50 Range, HCT116+/−.
The test system of assay [18] is SKBR3 breast cancer cell line. Kind of assay: cells. The conditions noted are these: Homo sapiens, SK-BR-3, 120 h, read-out: GI50 Range, SKBR3.
Assay [19] deals with A549 lung cancer cell line. The assay is described as follows: cells. To be noted: Homo sapiens, A549, 120 h, read-out: Cell Line GI50 Range A-549.
Assay [20] deals with H358 lung cancer cell line. The assay is described as follows: cells. To be noted: Homo sapiens, NCI-H358, 120 h, read-out: GI50 Range, H358.
Assay [21] relates to MCF-7 luminal breast cancer cell line. The assay is described as follows: cells. The conditions noted are these: Homo sapiens, MCF7, 120 h, read-out: Cell Line GI50 Range MCF-7.
Assay [22] deals with PC-3 prostate cancer cell line. Kind of assay: cells. The conditions noted are these: 120 h, read-out: GI50 Range, PC-3.
Assay [23] deals with HCC1954 basal breast cancer cell line.
For assay [24], the system named is HCT116+/+ colon cancer cell line. Kind of assay: cells. The conditions noted are these: Homo sapiens, HCT-116, 120 h, read-out: GI50 Range, HCT116+/+.
The test system of assay [25] is MDA-MB-468 basal breast cancer cell line. To be noted: read-out: Cell Line GI50 Range MDA-MB-468, SRB assay, 5 days, dihydrochloride. Background: The SRB assay estimates cell density from bound dye.
In assay [26] the test system is HCC1954 basal breast cancer cell line. Kind of assay: cells. To be noted: Homo sapiens, HCC1954, 120 h, read-out: Cell Line GI50 Range HCC-1954.

`COc1ccc2c(c1)[C@]1(C[C@H]1c1ccc3c(-c4ccc(N5CCN(C)CC5)nc4)n[nH]c3c1)C(=O)N2` (relative stereo) [Example A13, (1R*,2S*)-5′-Methoxy-2-(3-(6-(4-methylpiperazin-1-yl)pyridin-3-yl)-1H-indazol-6-yl)spiro[cyclopropane-1,3′-indolin]-2′-one]: the GI50 in assay [1] was less than 100 nM; in [2] it was less than 100 nM; with 518A2 melanoma cell line it was less than 100 nM; in assay [3], 100 to 1000 nM; in assay [4] it was less than 100 nM; in assay [5], 1000 to 50000 nM. Besides, the GI50 in assay [6] is 1000 to 50000 nM; in assay [7], more than 10000 nM; in assay [8] it was more than 50000 nM; in assay [9], 1000 to 50000 nM; in assay [10] it was less than 100 nM; in assay [11], 1000 to 50000 nM. The GI50 in assay [12] is 1000 to 50000 nM; in assay [13], less than 100 nM; in assay [14] (read-out: Cell Line GI50 Range MDA-MB-468, MDA-MB-468 basal breast cancer cell line, SRB assay, 5 days), 100 to 1000 nM; in assay [15], less than 100 nM; in [16], 1000 to 50000 nM; in [17], 1000 to 50000 nM. The GI50 is 1000 to 50000 nM in [18]; less than 100 nM in [19]; less than 100 nM in assay [20]; less than 100 nM in [21]; 1000 to 50000 nM in assay [22]; 100 to 1000 nM in assay [23] (read-out: Cell Line GI50 Range HCC-1954, SRB assay, 5 days). Also, the GI50 in [24] was 1000 to 50000 nM.

In the case of `COc1ccc2c(c1)[C@]1(C[C@H]1c1ccc3c(-c4ccc(N5CCN(C)CC5)nc4)n[nH]c3c1)C(=O)N2` (relative stereo) [Example A14, (1R*,2S*)-5′-Methoxy-2-(3-(6-(4-methylpiperazin-1-yl)pyridin-3-yl)-1H-indazol-6-yl)spiro[cyclopropane-1,3′-indolin]-2′-one dihydrochloride], the GI50 was less than 100 nM in assay [25] and 1000 to 10000 nM in assay [23] (read-out: Cell Line GI50 Range HCC-1954, SRB assay, 5 days, dihydrochloride).

For the compound `CN(C)Cc1ccc(/C=C/c2n[nH]c3cc([C@@H]4C[C@@]45C(=O)Nc4ccccc45)ccc23)cc1` (relative stereo) [Example A23, (1R*,2S*)-(E)-2-(3-(4-((dimethylamino)methyl)styryl)-1H-indazol-6-yl)spiro[cyclopropane-1,3′-indolin]-2′-one 2,2,2-trifluoroacetate], the GI50 was 1000 to 10000 nM in [26]; 1000 to 50000 nM in assay [3]; 1000 to 50000 nM in assay [5]; more than 10000 nM in assay [7]; 1000 to 50000 nM in [11]; 1000 to 50000 nM in [12]. Further, the GI50 in [17], in assay [18], in assay [22] and in [24] was 1000 to 50000 nM each time.

As to `O=C1Nc2ccccc2[C@]12C[C@H]2c1ccc2c(/C=C/c3ccc(N4CCNCC4)cc3)n[nH]c2c1` [Example A92, (1R,2S)-(E)-2-(3-(4-(piperazin-1-yl)styryl)-1H-indazol-6-yl)spiro[cyclopropane-1,3′-indolin]-2′-one bis(2,2,2-trifluoroacetate)], the GI50 was 100 to 1000 nM in [26]; more than 10000 nM in assay [7]; less than 100 nM in assay [10]; less than 100 nM in [14] (read-out: Cell Line GI50 Range MDA-MB-468); less than 100 nM in assay [19]; less than 100 nM in assay [21].
